Measured values reported in PubChem BioAssay AID1508623 (National Center for Advancing Translational Sciences (NCATS), 2021).
The campaign covered roughly 48,000 compounds. About 450 (0.94%) were called active. Inconclusive results (about 19%) are left out. Calls follow the shape of the dose curve; as a rule, active = well fitted inhibition curve with a large enough effect; inconclusive = small, poorly fitted or top-dose-only effect; inactive = no such curve, though single readings can be large or run the other way. Some of the results follow.

Assay: Primary qHTS for Identification of Small Molecule Inhibitors of Huntingtin Promoter Activity; also: nearly all actives have a fitted effect of over 50% in size
Conditions: HEK293 HTT promoter firefly luciferase reporter (activity 0% = vehicle and -100% = no light), 24 h; series mostly up to 57.5 µM; activity change, negative = inhibition: at the top concentration
How it was run: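 Firefly luciferase readout (Dual-Glo, 10 min RT) after 24 h, 37 °C compound exposure (final up to 57.5 uM) of HEK293 reporter cells cultured 24 h beforehand; PTC124 at 50 uM final as control inhibitor; activity scaled vehicle 0%, zero RLU -100%.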
Potency is read from the fitted curve at half-maximal effect.

SMILES	activity change, negative = inhibition	Potency
Cc1ccc(CN2c3ccccc3-c3nc(SCC(=O)NCCc4ccccc4)ncc3S2(=O)=O)cc1	inactive: -18.2%	–
CCOC(=O)c1cccc(NC(=O)CSc2cc(=O)n(C)c3ccccc23)c1	inactive: -24.4%	–
CCOC(=O)c1ccc(Oc2nc(C)nc3c2oc2ccccc23)cc1	inactive: -17.6%	–
Cc1nnsc1C(=O)Oc1ccc(C#N)cc1	inactive: -3.89%	–
O=C(CN1C(=O)C2(SCC(=O)N2c2cccc(F)c2)c2ccccc21)NCc1ccccc1Cl (stereo unspecified)	inactive: -28%	–
CCc1nc2ccccc2n1CCCCOc1cccc(C)c1	inactive: -25.7%	–
CC(C)(C)c1ccc(S(=O)(=O)c2cnc(SCC(=O)Nc3ccc4c(c3)OCCO4)[nH]c2=O)cc1	inactive: -0.945%	–
CC(C)CC(=O)NCC(c1ccc2c(c1)OCO2)N1CCN(c2ccc(F)cc2)CC1 (stereo unspecified)	inactive: -14.9%	–
COc1cccc2c1cc1c(=O)n(CC(=O)N3CCN(c4ccc(F)cc4)CC3)nc(C)n12	inactive: -8.99%	–
CCCS(=O)(=O)c1nc(S(=O)(=O)c2ccc(C)cc2)c(NCCCOC(C)C)s1	inactive: -23%	–
COc1ccc2nc(SCC(O)c3cccc(Br)c3)[nH]c2c1 (stereo unspecified)	inactive: 7.3%	–
Cc1ccc(Sc2ccc(N3CCCC(C(=O)Nc4ccc(F)cc4)C3)nn2)cc1 (stereo unspecified)	inactive: -25.6%	–
COc1ccc(-c2cn3c(n2)sc2cc(C(=O)NCCCc4ccccc4)ccc23)cc1	inactive: 5.3%	–
CCN(CC)C(=O)CSc1nc2cc3c(cc2c(=O)n1CCCC(=O)NCc1ccc2c(c1)OCO2)OCO3	inactive: -18.7%	–
O=C(Cn1nc(N2CCN(c3ccccc3)CC2)ccc1=O)NCc1ccccc1F	inactive: 0%	–
Cc1cccc(C(=O)Nc2ccccc2OCc2cc(=O)n3ccccc3n2)c1	inactive: 1.67%	–
CCOc1ccc(NC(=O)c2cn(C3CCCCC3)c(=O)c3c2c2ccccc2n3C)cc1	inactive: -8.84%	–
Cc1ccc(-c2nnc(SCC(=O)NC(C)(C)C)nc2-c2ccc(C)cc2)cc1	inactive: -13.8%	–
Cn1c(=O)c2c(nc(NCCc3ccccc3)n2Cc2ccccc2Br)n(C)c1=O	inactive: -5.89%	–
CCOc1ccc(C(=O)N(Cc2nc(-c3cccc(C)c3)no2)C(C)C)cc1	inactive: -9.55%	–
COc1ccc(-c2nc(CN3CCC(C(=O)NCc4ccc(C)cc4)CC3)c(C)o2)cc1OC	inactive: -29.6%	–

SMILES	activity change, negative = inhibition	Potency
CC(=O)OCC(=O)[C@@]1(O)[C@H](OC(C)=O)C[C@H]2[C@@H]3CCC4=CC(=O)C=C[C@]4(C)[C@@]3(F)[C@@H](O)C[C@@]21C	inactive: -0.87%	–
CC(C)(C)c1cc(C(=O)O)c(NC(=O)Nc2ccc3[nH]ncc3c2)s1	inactive: -4.19%	–
CCOc1ccc(CNC(=O)CCCn2c(=O)c3cccn3c3ccccc32)cc1	inactive: 3.03%	–
CCOc1ccccc1Nc1nc2ccccc2nc1NS(=O)(=O)c1ccc(Cl)cc1	inactive: -10.9%	–
COc1ccc(C(=O)n2nc(-c3cccnc3)nc2NCc2ccccc2)cc1OC	inactive: -6.49%	–
COc1ccccc1CNc1ncnc2onc(-c3ccc(F)cc3)c12	inactive: -18%	–
CC(=O)N1CCCc2cc(S(=O)(=O)N3CCC(C(=O)Nc4c(C)cccc4C)CC3)ccc21	–	active: 20 µM
CCc1nnc(SCc2cccc(Cl)c2)c2cc3sccc3n12	inactive: -25.1%	–
Cc1cc(C)c(NC(=O)CSc2nc3nccnc3c(=O)n2CCc2c[nH]c3ccccc23)c(C)c1	inactive: -11.5%	–
COc1ccc2c(CNC3CCCCCC3)c(C(=O)O)n(Cc3ccc(C)cc3)c2c1	inactive: -31.7%	–
COc1ccc(CNC(=O)CN2C(=O)COc3ccc(S(=O)(=O)N4CCCCC4)cc32)cc1	inactive: -3.18%	–
Cc1cc(F)ccc1NC(=O)Cn1nc(N2CCN(c3ccccc3)CC2)ccc1=O	inactive: -18%	–
Cc1ccc(Cn2c(C)c3cnn(CC(=O)O)c(=O)c3c2C)cc1	inactive: -18.2%	–
O=C(Cn1cc(SCc2ccc(F)cc2)c2ccccc21)N1CCCCC1	inactive: 2.25%	–
CCOc1cc(S(=O)(=O)NCCc2c(C)[nH]c3ccc(C)cc23)ccc1F	inactive: -4.62%	–
COc1ccc2c(c1)c(CC(=O)Nc1cc(C)cc(C)c1)c(C)n2C(=O)c1ccc(Cl)cc1	inactive: 0.224%	–
O=C(NCc1ccccc1)c1cnc2sc(N3CCCC3)nn2c1=O	inactive: 6.45%	–
COc1ccc(C)cc1NC(=O)c1sc2nc(-c3ccc(F)cc3)cn2c1C	inactive: 0.743%	–
O=C1CCCC2=C1C(c1[nH]ncc1Cl)N=C(Nc1nc3ccccc3o1)N2 (stereo unspecified)	inactive: 2.73%	–
Cc1cc(C)c2oc(C(=O)Nc3ccc(S(=O)(=O)Nc4ncccn4)cc3)cc(=O)c2c1	inactive: 6.78%	–
O=C(CCCn1ncn2c(cc3occc32)c1=O)NCc1ccccc1F	inactive: -9.32%	–

SMILES	activity change, negative = inhibition	Potency
Cc1cc2c(cc1S(=O)(=O)C(C)CC(=O)NC1CCC(C)CC1)OCC(=O)N2 (stereo unspecified)	inactive: 0%	–
O=C(Nc1ccccc1C(F)(F)F)c1cc2nc(-c3ccccc3)cc(-c3ccccc3)n2n1	inactive: -3.73%	–
COc1ccccc1NC(=O)c1sc(-c2ccc(Cl)cc2)cc1N	inactive: -11.9%	–
CCc1ccc2c(c1)NC(c1ccc(F)cc1)=NC(c1ccncc1)=N2	inactive: -9.34%	–
COCCc1nn2c(=O)cc(COC(=O)c3ccccc3C)nc2s1	inactive: 37.9%	–
Cc1ccc(C)c(N2CCN(C(=O)c3ccc4c(=O)n(CCc5ccccc5)c(=O)[nH]c4c3)CC2)c1	inactive: -2.67%	–
O=C(Nc1cc(-c2ccc(Cl)cc2)no1)c1ccc(F)cc1	inactive: 15%	–
CCCSCCCNC(=O)CN1C(=O)COc2ccc(S(=O)(=O)N3CCCC3)cc21	inactive: -14%	–
COc1cc(NC(=O)C2=CC(c3ccco3)=NS(=O)(=O)N2C)cc(OC)c1OC	inactive: -20.3%	–
CCCCn1c(=O)c2oc3ccccc3c2n(Cc2ccccc2C)c1=O	inactive: 4.34%	–
O=C(COc1ccc(F)cc1)Nc1ccccc1C(=O)OCc1cc(=O)n2ccsc2n1	inactive: -1.22%	–
Cc1nc(-c2ccccc2)sc1CCNC(=O)C(=O)Nc1ccc(F)c(Cl)c1	inactive: -13.5%	–
NC(=O)c1ccccc1NC(=O)CN1c2ccccc2S(=O)(=O)c2ccccc21	inactive: 9.93%	–
COc1cccc(N2CCN(C(=O)Cn3nc(C)n4c(cc5c(OC)cccc54)c3=O)CC2)c1	inactive: 2.3%	–
COC(=O)c1c(NC(=O)COc2ccc(Cl)cc2)sc(C)c1C	inactive: -1.75%	–
COCc1cc(C)nc2c1C(=O)NC(c1ccc(Br)cc1)N2Cc1ccccc1 (stereo unspecified)	inactive: -14.5%	–
COc1cc(Cl)c(C)cc1NC(=O)Cn1c2ncccc2c(=O)n1-c1ccccc1	inactive: 0.88%	–
CCc1ccc(-n2nnc(-c3nc(-c4ccc(C)cc4)no3)c2N)cc1	inactive: 1.72%	–
COc1ccc(Cl)cc1C(=O)NCc1nnnn1-c1ccccc1	inactive: 6.04%	–
